# B1: human triosephosphate isomerase (HsTIM), wild type sequence (enzyme)
# chain: not shown
# notes: triosephosphate isomerase, human, wild type, subcloned from pARHS-HsTIM into pET3b with an N-terminal His-tag and a TEV site; theoretical mass of the monomer after cleavage 26732 Da; Arg4, Arg98, Arg99 as printed are R5, R99, R100 with the methionine counted; also called P2; Peak 2; source: E. coli BL21(DE3), purified (Ni-NTA, TEV cleavage, second Ni-NTA); P2 isolated by SEC in 3 M urea; not …
# Target: the molecule itself
# Assay: SEC; Superdex 200 10/300GL, 20 mM triethanolamine, 0.2 mM EDTA, 200 mM NaCl, 1 mM dithiothreitol, pH 7.4; calibrated with globular markers; no urea
protein,measurement,value
B1,stoichiometry N,2

# Reference: paper PMC3125179, “A Ribosomal Misincorporation of Lys for Arg in Human Triosephosphate Isomerase Expressed in Escherichia coli Gives Rise to Two Protein Populations” (PLoS ONE, 2011)
